Laboratory results from ChEMBL document CHEMBL4888484, “Replenishing the malaria drug discovery pipeline: Screening and hit evaluation of the MMV Hit Generation Library 1 (HGL1) against asexual blood stage Plasmodium falciparum ,using a nano luciferase reporter read-out” (2022).
In all, about 150,000 compounds went through this assay and about 540 (0.36%) showed an effect of 50% or more. The list shows a part of the results.

system: Plasmodium falciparum; assay: Primary screen in NF54 nanoGlo assay, in single point, at 2uM, 72h; a lower Z score goes with more inhibition; type: functional, Erythrocyte; details: timepoint 72 hour

| Structure (SMILES) | % Inhibition [%] | Z score |
| --- | --- | --- |
| CCc1n[nH]c(NC(=O)c2cc(Br)cnc2C2CC2)n1 | -4 | 0.69 |
| CNC(=O)c1cccc(-n2ccnc2-c2ncc[nH]2)c1 | -16 | 1.81 |
| O=C(CCc1nnn2c1CN(C(=O)Nc1cccc(F)c1)CC2)N1CCOCC1 | -4 | 0.81 |
| COc1ccc(CCNC(=O)N2CCC(Oc3ccncc3Cl)CC2)cc1 | -14 | 2.62 |
| CC1=C(C(=O)Nc2ccccc2)C(c2ccc(Cl)cc2)C(C(=O)Nc2ccccc2)=C(C)N1 | -3 | 0.37 |
| O=C(Cc1cccc2ccccc12)Nc1ccc(Oc2ccccc2)cc1 | 1 | -0.29 |
| O=C(Nc1cnc(N2CCCCCC2)nc1)C1CCCC1 | -11 | 1.82 |
| Cc1noc([C@@H]2CN(S(=O)(=O)c3ccc4c(c3)CCCC4)C[C@H]2C(N)=O)n1 | -5 | 0.79 |
| CCc1nn(CCS(=O)(=O)N(C)C)c(=O)c(C#N)c1CC | 24 | -3.21 |
| O=C(NCc1ccccc1)[C@@H]1CCCCn2nnnc21 | -16 | 1.85 |
| NS(=O)(=O)c1cccc(S(F)(F)(F)(F)F)c1 | -18 | 1.96 |
| O=C(NCc1ccccc1C(F)(F)F)[C@H]1CCCN(c2ncnc3nn(-c4ccc(F)cc4)cc23)C1 | -3 | 0.3 |
| C[C@@H](Cc1ccco1)NC(=O)NCCn1ccnc1 | -9 | 1.09 |
| CN(Cc1noc2c1CCCC2)C1CCN(c2nc3ccccc3o2)CC1 | -11 | 1.54 |
| CNC(=O)[C@@H](NC(=O)CNC(=O)c1ccc(Cl)cc1)C(C)(C)C | 38 | -4.91 |
| CCCC(=O)N1CCCC(C(=O)N2CCCCC2C(=O)N2CCOCC2)C1 (stereo not drawn) | 5 | -0.75 |
| Cc1cccc(NC(=O)N2CCS(=O)(=O)C[C@H]2C2CCC2)c1 | -12 | 1.61 |
| O=C(NCC(O)c1ccccc1Cl)C1CCCN1 (stereo not drawn) | 1 | -0.1 |
| CCC(CC)n1ccc(C(=O)OCC2CCOCC2)n1 | -4 | 0.39 |
| COc1ccnc(-c2cccc(C(=O)NCCN3CCCC[C@@H]3CO)c2)n1 | -5 | 0.93 |
| CC1=C(C(=O)N(Cc2ccncc2)C2CCCCC2)OCCO1 | 4 | -0.61 |
| COc1nccnc1NCCc1nc(C(C)C)cs1 | 9 | -1.37 |
| COC(=O)[C@H]1C[C@@H](C(=O)NCc2cccc(OC)c2)[C@@H](c2ccccc2F)N1C | 7 | -0.98 |
| FCC1CN(Cc2cccc3cn[nH]c23)C1 | -6 | 1.11 |
| C[C@@H](COc1ccccc1F)NC(=O)NC(C(N)=O)C(N)=O | -1 | 0.07 |
| O=C(Nc1ccc(F)cc1)c1nn[nH]c1NS(=O)(=O)c1ccccc1 | 31 | -3.46 |
| CC(C)C(=O)N[C@@H](N1CCOCC1)C(Cl)(Cl)Cl | -5 | 1 |

| Structure (SMILES) | % Inhibition [%] | Z score |
| --- | --- | --- |
| CCCCc1oc2ccccc2c1CN1CCC(C(=O)N2CCCC2)CC1 | -8 | 0.97 |
| COc1ccc(Cl)cc1C(=O)N1CCC(N2CC(=O)N(C3CC3)C2=O)CC1 | -13 | 1.5 |
| CCn1nc(C)nc1NC(=O)[C@H]1C2CCC(CC2)[C@@H]1C(F)(F)F | -13 | 1.81 |
| Nc1nc(NCc2ccc(S(N)(=O)=O)cc2)cc([C@H]2CCOC2)n1 | -14 | 1.47 |
| O=C1N(CC2CCCCC2)CCC[C@@]1(O)CN[C@H]1CC[C@H](O)CC1 | 4 | -0.53 |
| CCc1ccc(O[C@@H](C)C(=O)OC)c(COc2ccc(-n3c(=O)cc(C(F)(F)F)n(C)c3=O)cc2)c1 | 39 | -1.12 |
| O=C(O)C1(Oc2ccc3ncccc3c2)CCN(Cc2ccoc2)CC1 | -9 | 1.15 |
| CCN(CC)Cc1nc(-c2cc(OCC(F)F)ccn2)no1 | 0 | 0.01 |
| Cc1nc(CNc2ccn(CCCC(=O)N(C)C)n2)cs1 | -7 | 1.06 |
| Cc1cc(C(=O)NCc2ccc(OC(C)(C)C)nc2)n(C)n1 | -6 | 0.47 |
| CN(C)[C@H]1CCC[C@@H]1Nc1nccs1 | -3 | 0.66 |
| Cc1ccc(-c2noc(-c3cn(Cc4ccc(NC(=O)Nc5ccc(C)cc5C)cc4)cn3)n2)cc1 | -11 | 1.46 |
| O=C(Nc1ccc(Cl)cn1)c1ccc2nsnc2c1 | 10 | -1.25 |
| O=C(NCc1nnc2ccccn12)c1ccc2c(c1)OCO2 | -6 | 1.03 |
| C=CCn1nnnc1CCCc1ccccc1 | 0 | 0.01 |
| Cn1cncc1CNCc1ccc2c(c1)CN(C(=O)OC(C)(C)C)C2 | -8 | 1.07 |
| O=C(NC[C@H]1CCCOC1)C1CN(CC(F)F)C1 | -12 | 2.01 |
| Cc1nc(C)c(CCNc2ccc(F)cn2)s1 | 1 | -0.15 |
| CCCn1cc(S(=O)(=O)NCc2ccnc(C)c2)cn1 | -3 | 0.61 |
| CC(C)c1cc(CN[C@@H](C)c2ccc(-n3cnnn3)cc2)on1 | -6 | 1.15 |
| NC(=O)c1coc(CNC(=O)c2ccc3c(c2)CCCCC3=O)n1 | -3 | 0.38 |
| CC1=C(C(=O)NC2CCN(S(=O)(=O)c3ccccc3)CC2)[C@H](C)NC(=O)N1 | 5 | -0.67 |
| CC(C)(C)CC(=O)Nc1ccc2c(c1)cc(C(=O)Nc1ccccc1)n2Cc1ccccc1F | -3 | 0.36 |
| CCCCn1nccc1NC(=O)N[C@@H](C)Cn1cncn1 | -15 | 2.14 |
| Cc1cccc(CN2CCN(C(=O)Cc3c[nH]cn3)[C@@H](C)C2=O)c1 | -4 | 0.51 |
| CC(C)n1cc(S(=O)(=O)N2CCC(=O)Nc3cnccc32)cn1 | -10 | 1.33 |
| CNc1nc(N2C[C@H]3CC[C@@H](C2)N(C)C3=O)nc2c1CCC2 | 6 | -0.76 |
